Measured values published in PubChem BioAssay AID504332 (National Center for Advancing Translational Sciences (NCATS), 2011).
Several values for one entry are separate records, joined by “and”; a condition that tells them apart may be missing. Identical values can stand only once. About 31,000 (8.9%) of roughly 350,000 compounds were called active. The inconclusive results got no clear call from the source; some entries with a clear call stand among them for comparison. Calls come from the whole dose curve; as a rule, active = well fitted inhibition curve with a large enough effect; inconclusive = small, poorly fitted or top-dose-only effect; inactive = no such curve, though single readings can be large or run the other way. Where the call is inconclusive, the potency comes from a doubtful curve fit.

These compounds were tested against Histone-lysine N-methyltransferase EHMT2 (Homo sapiens) (UniProt Q96KQ7) (assay: qHTS Assay for Inhibitors of Histone Lysine Methyltransferase G9a). Conditions: G9a H3K9 monomethylation, AlphaScreen, 2 h; activity, negative = inhibition: at 59 µM (top of the series) unless noted.
Outline: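 AlphaScreen read-out: biotin-H3K9 peptide (500 nM) methylation by 20 nM enzyme with 20 uM SAM, 2 h at room temperature after 15 min compound preincubation; anti-monomethyl H3K9 antibody plus donor/acceptor beads, 10 min dark.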
% is set by controls: 0 for no effect and ±100 for the full control effect; potency is the fitted concentration of half-maximal effect; tags give direction and shape of the fitted curve.
Note: nearly all actives have a fitted effect of over 75% in size.

Sequence of UniProt Q96KQ7 (Q96KQ7 whole entry, looked up): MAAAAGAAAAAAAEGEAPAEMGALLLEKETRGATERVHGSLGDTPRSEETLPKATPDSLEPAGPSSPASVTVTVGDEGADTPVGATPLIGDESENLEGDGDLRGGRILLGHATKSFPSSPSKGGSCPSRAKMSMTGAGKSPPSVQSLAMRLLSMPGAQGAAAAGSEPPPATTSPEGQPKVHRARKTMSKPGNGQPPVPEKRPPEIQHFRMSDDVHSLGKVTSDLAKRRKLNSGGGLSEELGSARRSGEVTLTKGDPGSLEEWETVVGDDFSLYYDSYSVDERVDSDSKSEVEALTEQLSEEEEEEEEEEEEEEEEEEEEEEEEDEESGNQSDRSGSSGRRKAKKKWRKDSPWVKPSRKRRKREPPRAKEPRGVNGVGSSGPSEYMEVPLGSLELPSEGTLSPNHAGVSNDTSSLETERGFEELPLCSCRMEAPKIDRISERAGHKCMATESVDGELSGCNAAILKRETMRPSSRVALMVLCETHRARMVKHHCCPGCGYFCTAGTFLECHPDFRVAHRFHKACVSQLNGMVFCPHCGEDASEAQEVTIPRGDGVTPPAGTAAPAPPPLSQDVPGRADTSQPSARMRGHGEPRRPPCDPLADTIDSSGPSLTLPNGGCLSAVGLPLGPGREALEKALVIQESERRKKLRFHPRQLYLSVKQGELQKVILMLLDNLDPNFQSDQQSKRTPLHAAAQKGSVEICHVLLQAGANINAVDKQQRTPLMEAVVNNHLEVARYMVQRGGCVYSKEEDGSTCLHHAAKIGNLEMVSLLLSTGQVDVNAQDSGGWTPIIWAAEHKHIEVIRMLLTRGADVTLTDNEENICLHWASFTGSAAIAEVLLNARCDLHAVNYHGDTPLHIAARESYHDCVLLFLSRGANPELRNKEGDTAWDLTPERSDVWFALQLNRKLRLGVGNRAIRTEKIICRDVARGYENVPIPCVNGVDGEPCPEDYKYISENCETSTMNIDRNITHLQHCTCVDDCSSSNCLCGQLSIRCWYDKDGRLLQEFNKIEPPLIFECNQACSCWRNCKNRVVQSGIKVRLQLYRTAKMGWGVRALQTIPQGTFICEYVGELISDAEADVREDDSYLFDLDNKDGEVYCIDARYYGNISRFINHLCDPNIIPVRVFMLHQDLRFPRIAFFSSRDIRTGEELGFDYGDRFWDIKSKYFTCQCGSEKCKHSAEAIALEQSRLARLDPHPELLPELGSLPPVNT

SMILES | Potency | activity, negative = inhibition
Cc1cc(C)c(NC2=NCC(=O)N2C2CCCCC2)c(C)c1 | inconclusive: 63.1 µM [inhibitor, partial curve, poor fit] | 
Nc1nc(-c2ccc3c(c2)CCCC3)cs1 | active: 17.8 µM | 
COc1ccc(NC(=O)c2ccc(NC(=O)COC(=O)CC(NC(=O)c3ccccc3Cl)c3ccccc3)cc2)cc1 (configuration not stated) | inconclusive: 79.4 µM [inhibitor, partial curve, poor fit] | 
O=C(O)Cc1ccc(NC(=O)c2ccc(NC(=O)c3ccco3)cc2)cc1 | inconclusive: 89.1 µM [inhibitor, single point] | 
O=C(CCc1ccccc1)Nc1nnc(-c2ccccn2)o1 | inconclusive: 89.1 µM [inhibitor, single point] | 
CCOc1ccccc1/C=C/C(=O)c1ccc(Cl)cc1 | inactive | 
CC1(C)C(/C=C/C=C/C=C/C=C2\N(CCCCS(=O)(=O)O)c3ccc4ccccc4c3C2(C)C)=[N+](CCCCS(=O)(=O)[O-])c2ccc3ccccc3c21 | inconclusive: 1 µM [inhibitor, full curve, poor fit] | 
COc1ccc(CCNC(=O)CCn2c(=O)c3ccccc3n(Cc3ccccc3C)c2=O)cc1OC | inactive | 
COC(=O)C1=C(C)N(CC(C)C)C(=O)C1 | active: 39.8 µM | 
Cc1ccc(S(=O)(=O)N2CCCCC2C(=O)N2CCN(Cc3ccccc3)CC2)cc1 (configuration not stated) | active: 11.2 µM | 
CCN(CC(=O)Nc1c(F)cccc1F)C(=O)c1n[nH]c2ccccc12 | inconclusive: 31.6 µM [inhibitor, partial curve, poor fit] | 
Cc1ccc2nc(SCC(=O)N3CCC(Cc4ccccc4)CC3)nc(=O)n2c1 | inconclusive: 14.1 µM [inhibitor, partial curve, poor fit] | 
COc1cc(-c2nc(CN3CCN(c4ncccn4)CC3)c(C)o2)ccc1F | inconclusive: 3.16 µM [inhibitor, partial curve, poor fit] | 
O=c1cc(O)c(Cl)c[nH]1 | inconclusive: 0.178 µM [inhibitor, full curve, poor fit] | 
Cc1ccc(CNC(=O)C2CCCN(Cc3nc(-c4cccc(C)c4)oc3C)C2)cc1 (configuration not stated) | inconclusive: 22.4 µM [inhibitor, partial curve, poor fit] | 
COc1cccc(CN2CCCN(S(=O)(=O)c3ccc(Br)cc3)CC2)c1 | inconclusive: 2.51 µM [inhibitor, full curve, poor fit] | 
Cc1ccc(Cl)cc1N1CCN(C(=O)COCc2cc(-c3ccc4c(c3)OCO4)on2)CC1 | inactive | 
Cc1cc(NC(=O)CCC(=O)N(Cc2ccco2)C(C(=O)NC2CCCCC2)c2cccs2)no1 (configuration not stated) | inconclusive: 39.8 µM [inhibitor, partial curve] | 
O=c1cc(-c2ccccc2)nc2c(-c3ccccc3)c(C(F)(F)F)[nH]n12 | inactive | 
CN(C)c1ncc2nc(-c3ccc(Cl)cc3)c(=O)n(Cc3cccs3)c2n1 |  | inactive: 21.9% [at 0.501 µM]
Cc1ccc(N=Cc2c(C)[nH]n(-c3ccccc3)c2=O)nc1 | inconclusive: 50.1 µM [inhibitor, partial curve] | 
COc1ccccc1C(=O)NC(=O)COC(=O)c1oc2ccccc2c1C | inconclusive: 15.8 µM [inhibitor, single point] | 
Cc1ccc2nc(NC(=O)C3CCN(S(=O)(=O)c4cc([N+](=O)[O-])ccc4Cl)CC3)sc2c1 | inconclusive: 6.31 µM [inhibitor, single point] | 

SMILES | Potency | activity, negative = inhibition
Cc1ccn2c(NC3CCCC3)c(-c3ccccn3)nc2c1 | inconclusive: 39.8 µM [inhibitor, single point] | 
CCNc1ccc(C(=O)OCC(=O)N2c3ccccc3NC(=O)C2(C)C)cc1[N+](=O)[O-] | inconclusive: 39.8 µM [inhibitor, single point] | 
COC(=O)N/N=C/c1ccc(-c2ccc(Cl)c(Cl)c2)o1 | inconclusive: 2.82 µM [inhibitor, partial curve, poor fit] | 
COc1ccc(S(=O)(=O)N2CCN(C(=O)/C=C/c3ccco3)CC2)cc1 | active: 25.1 µM | 
Cc1ccc(-c2nc3c(c(SCC(=O)Nc4cccc(C(=O)O)c4)n2)Cc2cccc(C)c2O3)cc1 | active: 10 µM | 
Cc1ccc(S(=O)(=O)c2nc(-c3ccc(F)cc3)oc2SCC(N)=O)cc1 | active: 12.6 µM | 
CCC(C)NCCOCCOc1ccc(Br)cc1C (configuration not stated) | inconclusive: 10 µM [inhibitor, partial curve, poor fit] | 
Cc1cc2c(cc1Cl)N(C(=O)Nc1ccnc3ccccc13)CC2 | inconclusive: 79.4 µM [inhibitor, partial curve] and inconclusive: 1.26 µM [inhibitor, partial curve, poor fit] | 
COc1ccc(CNC(=O)CS(=O)(=O)c2cccc3nsnc23)cc1 | inactive | 
O=C(O)[C@@H]1CCCNC1 | inactive | 
CCn1c(SCC(=O)OC)nc2cc(S(=O)(=O)N3CCOCC3)ccc21 | inactive | 
Cc1ccc(NC(=O)C(=O)NCc2ccncc2)cc1 | inconclusive: 39.8 µM [inhibitor, partial curve, poor fit] | 
O=C(O)c1cccc(N2C(=O)CSC2c2ccccc2)c1 (configuration not stated) | inactive | 
CC(C)(C)c1ccc(C(=O)Nc2ccc(C(=O)NCc3cccnc3)cc2)cc1 | inconclusive: 89.1 µM [inhibitor, single point] | 
N#Cc1ccccc1NC(=O)CSC1=Nc2ccccc2C2CC=NN12 (configuration not stated) | inconclusive: 79.4 µM [inhibitor, single point] | 
O=c1c(-c2nc3ccccc3o2)c2oc3ccccc3n2c2ccccc12 |  | inconclusive: -61.7% [inhibitor]
CCc1nc(SCC(=O)c2ccc3c(c2)OCCO3)c2ccccc2n1 | active: 8.91 µM | 
CCCCn1c(=O)[nH]c(=O)c2c1nc(-c1ccc(C#N)cc1)n2C1CCCC1 | inconclusive: 1 µM [inhibitor, partial curve, poor fit] | 
CC1CCN(S(=O)(=O)c2cccc(-c3nnc(-c4cccnc4)o3)c2)CC1 | inactive | 
CN(C)CCN(C(=O)c1ccc(S(=O)(=O)N2CCCC2)cc1)c1nc2ccc(Br)cc2s1 | active: 70.8 µM | 
COc1ccccc1NC(=S)NNC(=O)c1ccncc1 | inconclusive: 79.4 µM [inhibitor, single point] | 
Cc1nc2c(nnn2Cc2ccccc2)c(=O)[nH]1 | inconclusive: 50.1 µM [inhibitor, single point] | 
CN1CCN(S(=O)(=O)c2cccc(C(=O)Nc3cc(C(N)=O)cc(C(N)=O)c3)c2)CC1 | inconclusive: 89.1 µM [inhibitor, partial curve, poor fit] | 

SMILES | Potency | activity, negative = inhibition
O=C(c1ccc([N+](=O)[O-])cc1)N1c2ncnn2C2(CCCCC2)[C@@H]2CCCC[C@@H]21 | inactive | 
Cc1ccc2[nH]c(C)c(CCN(Cc3cccnc3)C(=S)NC(C)(C)C)c2c1 | inactive | 
CCOC(=O)C(=O)Nc1nnc(Cc2ccc(OC)c(OC)c2)s1 | inconclusive: 39.8 µM [inhibitor, single point] | 
COCC(=O)N(Cc1cc2ccc(C)cc2[nH]c1=O)c1cccc(C)c1 | inconclusive: 50.1 µM [inhibitor, partial curve, poor fit] | 
O=C1c2cccc([N+](=O)[O-])c2C(=O)N1CCO | inactive | 
Cc1[nH]nc(NNC(=O)c2ccccc2)c1[N+](=O)[O-] | inconclusive: 89.1 µM [inhibitor, single point] | 
CN(C)c1ccc(CNn2cnnc2SCc2ccc(F)cc2)cc1 | inconclusive: 3.16 µM [inhibitor, partial curve, poor fit] | 
O=C(CN1CCN(C2CCS(=O)(=O)C2)CC1)N1N=C(c2ccc(Cl)cc2)CC1c1ccco1 (configuration not stated) | inconclusive: 3.16 µM [inhibitor, full curve, poor fit] | 
CN(C)S(=O)(=O)c1cccc(NC(=S)N(CCC#N)Cc2cccnc2)c1 | inactive | 
CC(C)CCN1C(=O)c2ccc(C(=O)NCc3ccco3)cc2C1=O | inactive | 
COc1ccc2[nH]c(=O)c(CN(C(=O)c3ccncc3)C(C)(C)C)cc2c1 | inconclusive: 89.1 µM [inhibitor, single point] | 
COc1ccccc1NC(=O)CSc1nc2sc(C)c(C)c2c(=O)n1Cc1ccco1 | inconclusive: 56.2 µM [inhibitor, partial curve, poor fit] | 
C=CCN(CC=C)S(=O)(=O)c1ncn[nH]1 | inconclusive: 50.1 µM [inhibitor, partial curve, poor fit] | 
Cc1ccc2nc(-c3ccco3)c(Nc3ccc4c(c3)OCCO4)n2c1 | inconclusive: 10 µM [inhibitor, partial curve, poor fit] | 
O=C(NC(N1CCOCC1)C(Cl)(Cl)Cl)c1ccc(F)cc1 (configuration not stated) | inconclusive: 44.7 µM [inhibitor, partial curve, poor fit] | 
c1ccc2cc(OCCCn3ccnc3)ccc2c1 | active: 25.1 µM | 
CCCCN(C(=O)COC(=O)CSc1ccc([N+](=O)[O-])cc1)c1c(N)n(CCC)c(=O)[nH]c1=O | inconclusive: 79.4 µM [inhibitor, partial curve, poor fit] | 
C=CCn1c(SCc2ccccc2)nnc1-c1cccnc1 |  | inactive: 5.82% [at 12.7 µM]
COc1ccc2c(c1)c(=O)c(C(=O)c1ccc(Cl)cc1)cn2CC(=O)Nc1ccc2c(c1)OCCO2 | inactive | 
Cc1oc2ccc(O)c(CN3CCCC(C)C3)c2c1C(=O)Nc1ccccc1 (configuration not stated) | inactive | 
Fc1ccc(C2CC(c3ccco3)=Nc3ccccc3S2)cc1 (configuration not stated) | inconclusive: 28.2 µM [inhibitor, full curve] | 
